{
  "source": "the RNAGym collection of RNA variant scans (doi:10.1073/pnas.2313332121)",
  "parents": {"B1": {"name": "TPR 5TU (parent)", "chain": "GGAUCUUCUCGAUCUAACAAAAAAGACAAAUCUGCCACAAAGCUUGAGAGCAUCUUCGGAUGCAGAGGCGGCAGCCUUCGGUGGCGCGAUAGCGCCAACGUUCUCAACUAUGACACGCAAAACGCGUGCUCCGUUGAAUGGAGUUUAUCAUG"}},
  "note": "Variants at the background level are over-represented here.",
  "data": [
    {"variants_of": "B1", "experiment": "polymerase ribozyme fitness, log enrichment relative to wild type (log ratio); higher = more active; in vitro selection for triplet polymerase activity", "outline": "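Each subunit of a heterodimeric triplet polymerase ribozyme was mutagenized into a library by PCR, transcribed, and subjected to one round of in vitro selection, run in triplicate. Libraries were annealed with a biotinylated primer, the partner subunit and triplets, incubated frozen at −7 °C, and extended constructs were gel-excised, captured on streptavidin beads and recovered by RT-PCR. Input and output libraries were sequenced on Illumina, keeping genotypes with ≥10 input reads and ≥1 read per output. Fitness is log base 2 of genotype enrichment divided by wild-type enrichment, from inverse-variance-weighted replicate averages.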", "values": [
      {"variant": "A21G G67A", "polymerase ribozyme fitness (log ratio)": "≤ -4.2"},
      {"variant": "A21G G68U G141A C149G", "polymerase ribozyme fitness (log ratio)": "≤ -4.2"},
      {"variant": "A21G G70A", "polymerase ribozyme fitness (log ratio)": -3.35},
      {"variant": "A21G G81A U82C A107G", "polymerase ribozyme fitness (log ratio)": "≤ -4.2"},
      {"variant": "A21G G83A C108U G140C", "polymerase ribozyme fitness (log ratio)": "≤ -4.2"},
      {"variant": "A21G G84A A97C C103G G141A", "polymerase ribozyme fitness (log ratio)": "≤ -4.2"},
      {"variant": "A21G G86A C87G G100A", "polymerase ribozyme fitness (log ratio)": "≤ -4.2"},
      {"variant": "A21G G86C A91U C95U", "polymerase ribozyme fitness (log ratio)": "≤ -4.2"},
      {"variant": "A21G G88A U90C U127C U135G C149U", "polymerase ribozyme fitness (log ratio)": "≤ -4.2"},
      {"variant": "A21G U31G C38U A66G C93A G124U U144A", "polymerase ribozyme fitness (log ratio)": "≤ -4.2"},
      {"variant": "A21G U33A G88U U90G C114A U144C", "polymerase ribozyme fitness (log ratio)": "≤ -4.2"},
      {"variant": "A21G U33C A40C G62A G83C", "polymerase ribozyme fitness (log ratio)": "≤ -4.2"},
      {"variant": "A21G U33C A47G G58C C95A G128A A150U", "polymerase ribozyme fitness (log ratio)": "≤ -4.2"},
      {"variant": "A21G U44A G83A U102G U109G C118G G136A", "polymerase ribozyme fitness (log ratio)": "≤ -4.2"},
      {"variant": "A21G U45A A49G C85G C96U G152A", "polymerase ribozyme fitness (log ratio)": "≤ -4.2"},
      {"variant": "A21G U45A U78G C79A U109G A110G U145A A150G", "polymerase ribozyme fitness (log ratio)": "≤ -4.2"},
      {"variant": "A21G U53A C57A G68A C69U C93U G140U", "polymerase ribozyme fitness (log ratio)": "≤ -4.2"},
      {"variant": "A21G U55A C57U A107C C129U", "polymerase ribozyme fitness (log ratio)": "≤ -4.2"},
      {"variant": "A21G U55G G143C", "polymerase ribozyme fitness (log ratio)": -1.59},
      {"variant": "A21G U61A G94C C95G A121C G143C", "polymerase ribozyme fitness (log ratio)": "≤ -4.2"},
      {"variant": "A21G U77G G88C U135G G143U A147C", "polymerase ribozyme fitness (log ratio)": "≤ -4.2"},
      {"variant": "A21U", "polymerase ribozyme fitness (log ratio)": 0.554},
      {"variant": "A21U A22C A28U C43U G83A A91U", "polymerase ribozyme fitness (log ratio)": "≤ -4.2"},
      {"variant": "A21U A22G G88A A97G A106C C125U", "polymerase ribozyme fitness (log ratio)": "≤ -4.2"},
      {"variant": "A21U A22U C38U C57U G65C G84A U101C A138G", "polymerase ribozyme fitness (log ratio)": "≤ -4.2"},
      {"variant": "A21U A22U U45A U55G G86U A110C", "polymerase ribozyme fitness (log ratio)": "≤ -4.2"},
      {"variant": "A21U A22U U53G", "polymerase ribozyme fitness (log ratio)": -0.816},
      {"variant": "A21U A23C U45C A64U C85U C105G C149G", "polymerase ribozyme fitness (log ratio)": "≤ -4.2"},
      {"variant": "A21U A23G C54A U77G C79U C87A", "polymerase ribozyme fitness (log ratio)": "≤ -4.2"},
      {"variant": "A21U A23U A24C C54U G81A C85U A147C", "polymerase ribozyme fitness (log ratio)": "≤ -4.2"},
      {"variant": "A21U A23U A40U C57U C63A G92C A121G C125G A147C", "polymerase ribozyme fitness (log ratio)": "≤ -4.2"},
      {"variant": "A21U A24C G25A G34A G58C A91C U104C A107C A110G", "polymerase ribozyme fitness (log ratio)": "≤ -4.2"},
      {"variant": "A21U A24C U56A C96U A138U", "polymerase ribozyme fitness (log ratio)": "≤ -4.2"},
      {"variant": "A21U A24G C51U A119U", "polymerase ribozyme fitness (log ratio)": "≤ -4.2"},
      {"variant": "A21U A24U A52G G71U U90C C123U G126U U144A A147C U151A", "polymerase ribozyme fitness (log ratio)": "≤ -4.2"},
      {"variant": "A21U A24U G94U A97G A150C", "polymerase ribozyme fitness (log ratio)": "≤ -4.2"},
      {"variant": "A21U A26C A39G A40C G50A G68C C72G U111C", "polymerase ribozyme fitness (log ratio)": "≤ -4.2"},
      {"variant": "A21U A26C C51U C87U A142C", "polymerase ribozyme fitness (log ratio)": "≤ -4.2"},
      {"variant": "A21U A26C C69A G84U", "polymerase ribozyme fitness (log ratio)": -3.67},
      {"variant": "A21U A26G A52G G58A U78A G100A U134C", "polymerase ribozyme fitness (log ratio)": "≤ -4.2"},
      {"variant": "A21U A26G G59C G86C G88A C118G U135A", "polymerase ribozyme fitness (log ratio)": "≤ -4.2"},
      {"variant": "A21U A26G G86U C118U", "polymerase ribozyme fitness (log ratio)": "≤ -4.2"},
      {"variant": "A21U A26G U33A A142C G143U U146G C149G", "polymerase ribozyme fitness (log ratio)": "≤ -4.2"},
      {"variant": "A21U A26U A30C U31G C36U A52U U53A A97G", "polymerase ribozyme fitness (log ratio)": "≤ -4.2"},
      {"variant": "A21U A26U A39G C79A G141A", "polymerase ribozyme fitness (log ratio)": "≤ -4.2"},
      {"variant": "A21U A26U A60C C85U G92U C103A C116A A120U", "polymerase ribozyme fitness (log ratio)": "≤ -4.2"},
      {"variant": "A21U A26U C57U G84U", "polymerase ribozyme fitness (log ratio)": -3.6},
      {"variant": "A21U A26U G59A U111A A137U A142U", "polymerase ribozyme fitness (log ratio)": "≤ -4.2"},
      {"variant": "A21U A26U G83A A106G", "polymerase ribozyme fitness (log ratio)": -3.03},
      {"variant": "A21U A26U U78A G83U G94C", "polymerase ribozyme fitness (log ratio)": "≤ -4.2"},
      {"variant": "A21U A28U U31A C75U C85U G117A G136C", "polymerase ribozyme fitness (log ratio)": "≤ -4.2"},
      {"variant": "A21U A29C A30C A39G U44A A49C U53A G68A C105U", "polymerase ribozyme fitness (log ratio)": "≤ -4.2"},
      {"variant": "A21U A29C A30C U45A C85U G133U", "polymerase ribozyme fitness (log ratio)": "≤ -4.2"},
      {"variant": "A21U A29C A39C A40C C43U", "polymerase ribozyme fitness (log ratio)": "≤ -4.2"},
      {"variant": "A21U A29C C87G A113G G141A", "polymerase ribozyme fitness (log ratio)": "≤ -4.2"},
      {"variant": "A21U A29C C95A U101G G126C U135G G143U", "polymerase ribozyme fitness (log ratio)": "≤ -4.2"},
      {"variant": "A21U A29G G50A A52U G70C G86U G92C U127G A138C", "polymerase ribozyme fitness (log ratio)": "≤ -4.2"},
      {"variant": "A21U A29U A39G U90G C95U", "polymerase ribozyme fitness (log ratio)": "≤ -4.2"},
      {"variant": "A21U A29U A66U C76A C93G", "polymerase ribozyme fitness (log ratio)": "≤ -4.2"},
      {"variant": "A21U A29U G46C C72A G84U C105U U145C", "polymerase ribozyme fitness (log ratio)": "≤ -4.2"},
      {"variant": "A21U A29U U44A A52C C54G G68C G92C A106U", "polymerase ribozyme fitness (log ratio)": "≤ -4.2"},
      {"variant": "A21U A29U U61A", "polymerase ribozyme fitness (log ratio)": "≤ -4.2"},
      {"variant": "A21U A30U C38G C85G G112A G124A", "polymerase ribozyme fitness (log ratio)": "≤ -4.2"},
      {"variant": "A21U A37C A49C U78C C103A A113G", "polymerase ribozyme fitness (log ratio)": "≤ -4.2"},
      {"variant": "A21U A37C A49G A52U A91C", "polymerase ribozyme fitness (log ratio)": "≤ -4.2"},
      {"variant": "A21U A39C G58A G94C C125G U148G", "polymerase ribozyme fitness (log ratio)": "≤ -4.2"},
      {"variant": "A21U A39C G84U A97U U134A U139C A142U U148G", "polymerase ribozyme fitness (log ratio)": "≤ -4.2"},
      {"variant": "A21U A39C U90C C95U A97U", "polymerase ribozyme fitness (log ratio)": "≤ -4.2"},
      {"variant": "A21U A39G A66G A73G G86A", "polymerase ribozyme fitness (log ratio)": "≤ -4.2"},
      {"variant": "A21U A39G G84U", "polymerase ribozyme fitness (log ratio)": "≤ -4.2"},
      {"variant": "A21U A39U C79G G86A", "polymerase ribozyme fitness (log ratio)": "≤ -4.2"},
      {"variant": "A21U A39U U61G G92U C108A G141A", "polymerase ribozyme fitness (log ratio)": "≤ -4.2"},
      {"variant": "A21U A40U C85U G141A", "polymerase ribozyme fitness (log ratio)": 0.05},
      {"variant": "A21U A41C G84A C99U A150C", "polymerase ribozyme fitness (log ratio)": "≤ -4.2"},
      {"variant": "A21U A41C G86A G100U A110C", "polymerase ribozyme fitness (log ratio)": "≤ -4.2"},
      {"variant": "A21U A41G", "polymerase ribozyme fitness (log ratio)": 1.06},
      {"variant": "A21U A41G A60U C85U C103G C123A", "polymerase ribozyme fitness (log ratio)": -3.69},
      {"variant": "A21U A41U U55G G83A U145A", "polymerase ribozyme fitness (log ratio)": -2.5},
      {"variant": "A21U A47G C54U G81C G92A C95A C99U", "polymerase ribozyme fitness (log ratio)": -3.94},
      {"variant": "A21U A47U G80A C85U A89C C103G G124A", "polymerase ribozyme fitness (log ratio)": "≤ -4.2"},
      {"variant": "A21U A49G U55A G84A U104C A137U G140C A150C", "polymerase ribozyme fitness (log ratio)": "≤ -4.2"},
      {"variant": "A21U A52G C75A A91G C93U C108G", "polymerase ribozyme fitness (log ratio)": "≤ -4.2"},
      {"variant": "A21U A60G", "polymerase ribozyme fitness (log ratio)": 0.987},
      {"variant": "A21U A60U G100A A137C", "polymerase ribozyme fitness (log ratio)": "≤ -4.2"}
    ]}
  ]
}
